# Laboratory results published in the supplement of paper PMC8728848.
# This is one part of the list.
# Columns and labels:
# Assay in all cases: glycan array binding signal (z-score within array); higher = stronger binding
# Details in all cases: glycan notation: IUPAC condensed, linker removed
# [1] = target: Fuc(a1-2)[GalNAc(a1-3)]Gal(b1-3)GlcNAc(b1-6)GalNAc
# In short: (§1)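 Columns mapping to the same glycan were averaged after glycan names were converted to IUPAC-condensed notation. The data come from 3228 arrays in the Consortium for Functional Glycomics database, limited to those with an available protein sequence. Binding is reported as a within-array Z-score averaged across arrays of one protein sequence and across linkers.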
# [2] = target: Fuc(a1-2)[GalNAc(a1-3)]Gal(b1-4)Glc
# In short: as §1
# [3] = target: Fuc(a1-2)[GalNAc(a1-3)]Gal(b1-4)GlcNAc
# In short: as §1
# [4] = target: Fuc(a1-2)[GalNAc(a1-3)]Gal(b1-4)GlcNAc(b1-2)Man
# In short: as §1
# [5] = target: Fuc(a1-2)[GalNAc(a1-3)]Gal(b1-4)GlcNAc(b1-2)Man(a1-3)[Fuc(a1-2)[GalNAc(a1-3)]Gal(b1-4)GlcNAc(b1-2)Man(a1-6)]Man(b1-4)GlcNAc(b1-4)GlcNAc
# In short: as §1
# [6] = target: Fuc(a1-2)[GalNAc(a1-3)]Gal(b1-4)GlcNAc(b1-2)Man(a1-3)[Fuc(a1-2)[GalNAc(a1-3)]Gal(b1-4)GlcNAc(b1-2)Man(a1-6)]Man(b1-4)GlcNAc(b1-4)[Fuc(a1-6)]GlcNAc
# In short: as §1
# [7] = target: Fuc(a1-2)[GalNAc(a1-3)]Gal(b1-4)GlcNAc(b1-3)Gal(b1-4)GlcNAc
# In short: as §1
# [8] = target: Fuc(a1-2)[GalNAc(a1-3)]Gal(b1-4)GlcNAc(b1-3)Gal(b1-4)GlcNAc(b1-3)Gal(b1-4)GlcNAc
# In short: as §1
# [9] = target: Fuc(a1-2)[GalNAc(a1-3)]Gal(b1-4)GlcNAc(b1-3)GalNAc
# In short: as §1
# [10] = target: Fuc(a1-2)[GalNAc(a1-3)]Gal(b1-4)GlcNAc(b1-3)[Fuc(a1-2)[GalNAc(a1-3)]Gal(b1-4)GlcNAc(b1-6)]GalNAc
# In short: as §1
# [11] = target: Fuc(a1-2)[GalNAc(a1-3)]Gal(b1-4)GlcNAc(b1-6)GalNAc
# In short: as §1
# [12] = target: Fuc(a1-2)[GalNAc(a1-3)]Gal(b1-4)[Fuc(a1-3)]GlcNAc
# In short: as §1
# [13] = target: Fuc(a1-2)[GalNAc(a1-3)]Gal(b1-4)[Fuc(a1-3)]GlcNAc(b1-3)GalNAc
# In short: as §1
# [14] = target: Fuc(a1-2)[GalNAc(a1-4)]Gal(b1-4)GlcNAc
# In short: as §1
# [15] = target: Fuc(a1-2)[GalNAc(b1-3)]Gal
# In short: as §1
# Fuc(a1-3)GlcNAc = target: Fuc(a1-3)GlcNAc
# In short: as §1
# [16] = target: Fuc(a1-3)[Gal(b1-4)]Glc6S
# In short: as §1
# [17] = target: Fuc(a1-3)[Gal(b1-4)]GlcNAc
# In short: as §1
# [18] = target: Fuc(a1-3)[Gal(b1-4)]GlcNAc(b1-2)Man
# In short: as §1
# [19] = target: Fuc(a1-3)[Gal(b1-4)]GlcNAc(b1-2)Man(a1-3)[Fuc(a1-3)[Gal(b1-4)]GlcNAc(b1-2)Man(a1-6)]Man(b1-4)GlcNAc(b1-4)GlcNAc
# In short: as §1
# [20] = target: Fuc(a1-3)[Gal(b1-4)]GlcNAc(b1-2)Man(a1-3)[Fuc(a1-3)[Gal(b1-4)]GlcNAc(b1-2)Man(a1-6)]Man(b1-4)GlcNAc(b1-4)[Fuc(a1-6)]GlcNAc
# In short: as §1
# [21] = target: Fuc(a1-3)[Gal(b1-4)]GlcNAc(b1-3)Gal(b1-3)[Fuc(a1-4)]GlcNAc
# In short: as §1
# [22] = target: Fuc(a1-3)[Gal(b1-4)]GlcNAc(b1-3)Gal(b1-4)[Fuc(a1-3)]GlcNAc
# In short: as §1
# [23] = target: Fuc(a1-3)[Gal(b1-4)]GlcNAc(b1-3)Gal(b1-4)[Fuc(a1-3)]GlcNAc(b1-3)Gal(b1-4)[Fuc(a1-3)]GlcNAc
# In short: as §1
# [24] = target: Fuc(a1-3)[Gal(b1-4)]GlcNAc(b1-3)GalNAc
# In short: as §1
# [25] = target: Fuc(a1-3)[Gal(b1-4)]GlcNAc(b1-6)GalNAc
# In short: as §1
# [26] = target: Fuc(a1-3)[Gal(b1-4)]GlcNAc(b1-6)[Gal(b1-3)GlcNAc(b1-3)]Gal(b1-4)Glc
# In short: as §1
# [27] = target: Fuc(a1-3)[Gal(b1-4)]GlcNAc6S
# In short: as §1
# [28] = target: Fuc(a1-3)[Gal3S(b1-4)]Glc
# In short: as §1
# [29] = target: Fuc(a1-3)[Gal3S(b1-4)]GlcNAc
# In short: as §1
# [30] = target: Fuc(a1-3)[Gal3S(b1-4)]GlcNAc6S
# In short: as §1
# [31] = target: Fuc(a1-3)[GalNAc(b1-4)]GlcNAc
# In short: as §1
# [32] = target: Fuc(a1-3)[GalNAc(b1-4)]GlcNAc6S
# In short: as §1
# Fuc(a1-4)GlcNAc = target: Fuc(a1-4)GlcNAc
# In short: as §1
# Fuc(b1-3)GlcNAc = target: Fuc(b1-3)GlcNAc
# In short: as §1
# Gal(a1-2)Gal = target: Gal(a1-2)Gal
# In short: as §1
# Gal(a1-3)Gal = target: Gal(a1-3)Gal
# In short: as §1
binder,measurement,setting,value
Cohesin-mDCIR (Macaca mulatta) (protein) GLDDLDAVRIKVDTVNAKPGDTVRIPVRFSGIPSKGIANCDFVYSYDPNVLEIIEIEPGDIIVDPNPDKSFDTAVYPDRKIIVFLFAEDSGTGAYAITKDGVFATIVAKVKEGAPNGLSVIKFVEVGGFANNDLVEQKTQFFDGGVNVGDTTEPATPTTPVTTPTTTDDLDAASFQKYSQLLEKMTTKDLVHTTLECVKKNMTTEETAWSCCPKNWKPFSSNCYFISTESASWQKSEKDCARMEAHLLVINTREEQDFIFQNLQEESAYFVGLSDPEGQRHWQWVDRTPYNESSTFWHPHEPSDPDERCVVLNFRKTPKRWGWNDVHCIVHQRSVCEMMKIHLHHHHHH,glycan array binding signal (z-score),[1],1.81
same,glycan array binding signal (z-score),[2],-0.37
same,glycan array binding signal (z-score),[3],-0.148
same,glycan array binding signal (z-score),[4],-0.101
same,glycan array binding signal (z-score),[5],-0.185
same,glycan array binding signal (z-score),[6],-0.321
same,glycan array binding signal (z-score),[7],-0.448
same,glycan array binding signal (z-score),[8],-0.403
same,glycan array binding signal (z-score),[9],-0.338
same,glycan array binding signal (z-score),[10],-0.318
same,glycan array binding signal (z-score),[11],5.37
same,glycan array binding signal (z-score),[12],-0.267
same,glycan array binding signal (z-score),[13],-0.088
same,glycan array binding signal (z-score),[14],2.24
same,glycan array binding signal (z-score),[15],3.27
same,glycan array binding signal (z-score),Fuc(a1-3)GlcNAc,-0.034
same,glycan array binding signal (z-score),[16],-0.411
same,glycan array binding signal (z-score),[17],0.21
same,glycan array binding signal (z-score),[18],-0.274
same,glycan array binding signal (z-score),[19],-0.272
same,glycan array binding signal (z-score),[20],-0.388
same,glycan array binding signal (z-score),[21],-0.409
same,glycan array binding signal (z-score),[22],-0.046
same,glycan array binding signal (z-score),[23],-0.413
same,glycan array binding signal (z-score),[24],0.024
same,glycan array binding signal (z-score),[25],-0.172
same,glycan array binding signal (z-score),[26],-0.151
same,glycan array binding signal (z-score),[27],-0.491
same,glycan array binding signal (z-score),[28],0.145
same,glycan array binding signal (z-score),[29],0.526
same,glycan array binding signal (z-score),[30],0.417
same,glycan array binding signal (z-score),[31],0.563
same,glycan array binding signal (z-score),[32],-0.236
same,glycan array binding signal (z-score),Fuc(a1-4)GlcNAc,0.096
same,glycan array binding signal (z-score),Fuc(b1-3)GlcNAc,-0.207
same,glycan array binding signal (z-score),Gal(a1-2)Gal,0.617
same,glycan array binding signal (z-score),Gal(a1-3)Gal,-0.199
